Test results as given in publication PMC9911399, “Two distinct binding modes provide the RNA-binding protein RbFox with extraordinary sequence specificity”.
Numbering of substitutions follows the chain as printed; changes in the protein carry UniProt numbers. Some of the results follow.

T1: RBFOX1 RRM (Homo sapiens, UniProt Q9NWB1 109-208)
T1 sequence: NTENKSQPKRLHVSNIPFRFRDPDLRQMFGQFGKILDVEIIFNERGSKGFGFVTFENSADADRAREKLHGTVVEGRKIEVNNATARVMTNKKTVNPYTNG

B1: GCCAACU (DNA:RNA)
RNA: GGGAGACCGGAAUUCAGAUUGUCCGCCAACUUUAAAUCCCGUCGUAGCCACCA
DNA 1: CAATCTGAATTCCGGTCTCCC
DNA 2: TGGTGGCTACGACGGGATT
B2: UAAGCGU (DNA:RNA)
RNA: B1 RNA with G25U, C26A, C27A, A28G, A29C, C30G
DNA 1: CAATCTGAATTCCGGTCTCCC
DNA 2: TGGTGGCTACGACGGGATT
B3: UCCUGAU (DNA:RNA)
RNA: B1 RNA with G25U, A28U, A29G, C30A
DNA 1: CAATCTGAATTCCGGTCTCCC
DNA 2: TGGTGGCTACGACGGGATT
B4: GCAAUCU (DNA:RNA)
RNA: B1 RNA with C27A, A29U
DNA 1: CAATCTGAATTCCGGTCTCCC
DNA 2: TGGTGGCTACGACGGGATT
B5: CGGACGA (DNA:RNA)
RNA: B1 RNA with G25C, C26G, C27G, A29C, C30G, U31A
DNA 1: CAATCTGAATTCCGGTCTCCC
DNA 2: TGGTGGCTACGACGGGATT
B6: GCUCGUU (DNA:RNA)
RNA: B1 RNA with C27U, A28C, A29G, C30U
DNA 1: CAATCTGAATTCCGGTCTCCC
DNA 2: TGGTGGCTACGACGGGATT
B7: AAGGACC (DNA:RNA)
RNA: B1 RNA with G25A, C26A, C27G, A28G, U31C
DNA 1: CAATCTGAATTCCGGTCTCCC
DNA 2: TGGTGGCTACGACGGGATT
B8: AUGGAGA (DNA:RNA)
RNA: B1 RNA with G25A, C26U, C27G, A28G, C30G, U31A
DNA 1: CAATCTGAATTCCGGTCTCCC
DNA 2: TGGTGGCTACGACGGGATT
B9: CGGGGCA (DNA:RNA)
RNA: B1 RNA with G25C, C26G, C27G, A28G, A29G, U31A
DNA 1: CAATCTGAATTCCGGTCTCCC
DNA 2: TGGTGGCTACGACGGGATT
B10: UCUUGGG (DNA:RNA)
RNA: B1 RNA with G25U, C27U, A28U, A29G, C30G, U31G
DNA 1: CAATCTGAATTCCGGTCTCCC
DNA 2: TGGTGGCTACGACGGGATT
B11: GCUCGAA (DNA:RNA)
RNA: B1 RNA with C27U, A28C, A29G, C30A, U31A
DNA 1: CAATCTGAATTCCGGTCTCCC
DNA 2: TGGTGGCTACGACGGGATT
B12: UCCGCCU (DNA:RNA)
RNA: B1 RNA with G25U, A28G, A29C
DNA 1: CAATCTGAATTCCGGTCTCCC
DNA 2: TGGTGGCTACGACGGGATT
B13: GGCAUCC (DNA:RNA)
RNA: B1 RNA with C26G, A29U, U31C
DNA 1: CAATCTGAATTCCGGTCTCCC
DNA 2: TGGTGGCTACGACGGGATT
B14: CGUCGAA (DNA:RNA)
RNA: GGGAGACCGGAAUUCAGAUUGUCCCGUCGAAUUAAAUCCCGUCGUAGCCACCA
DNA 1: CAATCTGAATTCCGGTCTCCC
DNA 2: TGGTGGCTACGACGGGATT
B15: GGGUGCA (DNA:RNA)
RNA: B14 RNA with C25G, U27G, C28U, A30C
DNA 1: CAATCTGAATTCCGGTCTCCC
DNA 2: TGGTGGCTACGACGGGATT
B16: CGUCCUG (DNA:RNA)
RNA: B14 RNA with G29C, A30U, A31G
DNA 1: CAATCTGAATTCCGGTCTCCC
DNA 2: TGGTGGCTACGACGGGATT
B17: UUUUCUG (DNA:RNA)
RNA: B14 RNA with C25U, G26U, C28U, G29C, A30U, A31G
DNA 1: CAATCTGAATTCCGGTCTCCC
DNA 2: TGGTGGCTACGACGGGATT
B18: AGAUGAC (DNA:RNA)
RNA: B14 RNA with C25A, U27A, C28U, A31C
DNA 1: CAATCTGAATTCCGGTCTCCC
DNA 2: TGGTGGCTACGACGGGATT
B19: UAGAAUU (DNA:RNA)
RNA: B1 RNA with G25U, C26A, C27G, C30U
DNA 1: CAATCTGAATTCCGGTCTCCC
DNA 2: TGGTGGCTACGACGGGATT
B20: AGAUCAU (DNA:RNA)
RNA: B14 RNA with C25A, U27A, C28U, G29C, A31U
DNA 1: CAATCTGAATTCCGGTCTCCC
DNA 2: TGGTGGCTACGACGGGATT
B21: AUUAGUA (DNA:RNA)
RNA: B14 RNA with C25A, G26U, C28A, A30U
DNA 1: CAATCTGAATTCCGGTCTCCC
DNA 2: TGGTGGCTACGACGGGATT
B22: AAAAUGU (DNA:RNA)
RNA: B1 RNA with G25A, C26A, C27A, A29U, C30G
DNA 1: CAATCTGAATTCCGGTCTCCC
DNA 2: TGGTGGCTACGACGGGATT
B23: CAGAGGA (DNA:RNA)
RNA: B14 RNA with G26A, U27G, C28A, A30G
DNA 1: CAATCTGAATTCCGGTCTCCC
DNA 2: TGGTGGCTACGACGGGATT
B24: UAGUGUU (DNA:RNA)
RNA: B14 RNA with C25U, G26A, U27G, C28U, A30U, A31U
DNA 1: CAATCTGAATTCCGGTCTCCC
DNA 2: TGGTGGCTACGACGGGATT
B25: GUUGUGU (DNA:RNA)
RNA: B1 RNA with C26U, C27U, A28G, A29U, C30G
DNA 1: CAATCTGAATTCCGGTCTCCC
DNA 2: TGGTGGCTACGACGGGATT
B26: ACGACGA (DNA:RNA)
RNA: B1 RNA with G25A, C27G, A29C, C30G, U31A
DNA 1: CAATCTGAATTCCGGTCTCCC
DNA 2: TGGTGGCTACGACGGGATT
B27: GCUGUCA (DNA:RNA)
RNA: B1 RNA with C27U, A28G, A29U, U31A
DNA 1: CAATCTGAATTCCGGTCTCCC
DNA 2: TGGTGGCTACGACGGGATT
B28: GCAUAAU (DNA:RNA)
RNA: B1 RNA with C27A, A28U, C30A
DNA 1: CAATCTGAATTCCGGTCTCCC
DNA 2: TGGTGGCTACGACGGGATT
B29: ACUAGCU (DNA:RNA)
RNA: B1 RNA with G25A, C27U, A29G
DNA 1: CAATCTGAATTCCGGTCTCCC
DNA 2: TGGTGGCTACGACGGGATT
B30: GGUUACU (DNA:RNA)
RNA: B1 RNA with C26G, C27U, A28U
DNA 1: CAATCTGAATTCCGGTCTCCC
DNA 2: TGGTGGCTACGACGGGATT
B31: UUGCAUG (DNA:RNA)
RNA: B14 RNA with C25U, G26U, U27G, G29A, A30U, A31G
DNA 1: CAATCTGAATTCCGGTCTCCC
DNA 2: TGGTGGCTACGACGGGATT

What follows are binders tested against T1, RBFOX1 RRM (assay: EMSA; HiTS-Eq, 1 nM pool, 10 min; buffer printed only for the single-RNA assays: 10 mM Tris pH 7.5, 150 mM NaCl, 3.4 mM EDTA, 0.001% NP-40, 30 C). Conditions: tags: His6 N-terminal (pET28a); label: 5' 32P.
Outline: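 A pool of RNA with 7 randomized nucleotides, 5′-radiolabelled and with DNA-annealed flanks, was equilibrated at 1 nM for 10 min in 50 µL with purified RbFox RRM, wild type or mutant, across increasing protein concentrations. Free RNA was separated by 8% native PAGE, excised, reverse-transcribed, barcoded by PCR and sequenced. Relative association constants were obtained from read-count changes of each RNA species versus the control reaction and normalised to the cognate motif.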
B1 was tested, and the binding signal was 0.00345 KA relative to UGCAUGU. For B2, the binding signal was 0.013 KA relative to UGCAUGU. In the case of B3, the binding signal is reported as 0.0108 KA relative to UGCAUGU. In the case of B4, the binding signal is reported as 0.00618 KA relative to UGCAUGU. B5 was tested, and the binding signal was 0.0171 KA relative to UGCAUGU. With B6 the binding signal was 0.0239 KA relative to UGCAUGU. With B7 the binding signal was 0.00475 KA relative to UGCAUGU. B8 was tested, and the binding signal was 0.00682 KA relative to UGCAUGU. B9 was tested, and the binding signal was 0.0261 KA relative to UGCAUGU. B10 was tested, and the binding signal was 0.00663 KA relative to UGCAUGU. With B11 the binding signal was 0.0241 KA relative to UGCAUGU. In the case of B12, the binding signal is reported as 0.00624 KA relative to UGCAUGU. B13 was tested, and the binding signal was 0.00705 KA relative to UGCAUGU. B14 was tested, and the binding signal was 0.00933 KA relative to UGCAUGU. For B15, the binding signal was 0.0415 KA relative to UGCAUGU. For B16, the binding signal was 0.0127 KA relative to UGCAUGU. With B17 the binding signal was 0.0286 KA relative to UGCAUGU. B18 was tested, and the binding signal was 0.008 KA relative to UGCAUGU. For B19, the binding signal was 0.00627 KA relative to UGCAUGU. In the case of B20, the binding signal is reported as 0.000692 KA relative to UGCAUGU. For B21, the binding signal was 0.00672 KA relative to UGCAUGU. With B22 the binding signal was 0.00225 KA relative to UGCAUGU. For B23, the binding signal was 0.00799 KA relative to UGCAUGU. B24 was tested, and the binding signal was 0.0155 KA relative to UGCAUGU. B25 was tested, and the binding signal was 0.0226 KA relative to UGCAUGU. With B26 the binding signal was 0.00391 KA relative to UGCAUGU. With B27 the binding signal was 0.0121 KA relative to UGCAUGU. In the case of B28, the binding signal is reported as 0.00163 KA relative to UGCAUGU. B29 was tested, and the binding signal was 0.00211 KA relative to UGCAUGU. With B30 the binding signal was 0.0106 KA relative to UGCAUGU. For B31, the binding signal was 1 KA relative to UGCAUGU.
